Measurements from the supplement of paper PMC11417369.
The other results are listed elsewhere or left out.

System: PfSIP2 AP2 domain 1 (GST-tagged)
Assay: gcPBM binding intensity (ln(normalized median fluorescence intensity)); higher = stronger DNA binding
In short: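 GST-tagged P. falciparum DNA-binding domains, expressed in E. coli (about 25 μg on average), were applied for 1 h to an Agilent 4 × 180k array of primer-extended double-stranded 36-bp intergenic genomic probes plus negative controls. The binding buffer was 1× PBS with 1% milk, 0.2 mg/ml BSA, 0.5% salmon testes DNA and 0.03% Triton X-100. Bound protein was detected with Alexa488 anti-GST antibody and scanned at 488 nm. Binding intensity is the highest Masliner-normalised natural-log median intensity across replicate spots of either probe orientation.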

| Sequence | gcPBM binding intensity (ln) |
| --- | --- |
| AAAATTTATGTAAAATGTACATACATAAATAAAGAT [XGTACX_site4339] | 7.37 |
| TATTTATTTAAAGGCACACATATTTTTATACTTTCT [CACACA_site3163] | 6.86 |
| ATTATATATATATATAAACACACATAAATATAAATA [CACACA_site8291] | 7.22 |
| TAAGGAAAAAATTATAGTACATAATAAATGTATATA [XGTACX_site8328] | 7 |
| ATAAATATATTTCACGCACACACACCCCAAATAAAT [CACACA_site9272] | 7.45 |
| AAAAAAGAAAAGAAATCATGAAAGAATCAAATAAAG [CACACA_negctrl_site1771] | 6.88 |
| CAAATTTTTTATTAAACACACAAACATATATTTATA [CACACA_site6992] | 6.77 |
| TTTTTATATATATTCTCACACACTTTTTATTTTAAC [CACACA_site657] | 6.97 |
| TGTTTTTTATTTAATTGTACGAATTAAAAAAAATAA [XGTACX_site3009] | 7.23 |
| AATATTCATATGCAGGTGCATTAATTTTTATTAATT | 10.4 |
| TTCCAACCATAGTATTCACACATTGTTTTATTCCAT [CACACA_site4927] | 7.12 |
| TTTCGTAAACAAATTTGTACGTACAAATTTATAAAT [XGTACX_site8175] | 7.43 |
| TTTTTACTAATAAGATGTACATATATCCTAAGCATA [XGTACX_site251] | 7.23 |
| TACATACATACATACACACATACATATATATATATA [CACACA_site1387] | 9.5 |
| TCTTTTATTAGTAAAAGTACTTATATAAATATTATA [XGTACX_site5099] | 6.98 |
| ATAATATAATAAACGTGTACACAATTAAATTATTAT [XGTACX_site3491] | 7.36 |
| AATACTCTATTTTATAGTACATATATTATTAATCAC [XGTACX_site6622] | 6.96 |
| GAAAAAAAAAAAAATACACACAAATTGGTATATAAT [CACACA_site4369] | 6.72 |
| TATCAAATCCAAAGGGGTACATTTTGTTGTCCTAAT [XGTACX_site5575] | 7.2 |
| TAGCTCGTTCGGAGCACACACATATAAATAAATATA [CACACA_site7002] | 6.83 |
| ATAGACAGCGCACAAACACACAAACACGCACGCACA [CACACA_site6349] | 8.7 |
| TAGGGATTATACCACACACACATACCCATAAATATA [CACACA_site5719] | 6.9 |
| TATTTACATGTAAAAGGTACACACATTATATATACA [XGTACX_site2157] | 7.1 |

| Sequence | gcPBM binding intensity (ln) |
| --- | --- |
| TAAAATAAAACAAACACACACACACCCCCACAAAAA [CACACA_site3850] | 8.65 |
| TTTATTATTTTTTGTAGTACTTTATATAAAAGTTCT [XGTACX_site4494] | 7.25 |
| ATACACTTTTATATATCAATACATTATGTATTAAGT [CACACA_negctrl_site421] | 7.14 |
| CCTCTTTATTTTAATTGTACATTTTTGTAGGTTTTT [XGTACX_site7130] | 7.33 |
| AAAACAAACCCATTTACACACATAAATAAATCAATT [CACACA_site6126] | 7 |
| ATGTATATATATATATGTACTAATTAGTAATTTACG [XGTACX_site6276] | 7.27 |
| TCCTTTTTTTTGTAATGTACTTAGTTTGGTTATATG [XGTACX_site8208] | 7.14 |
| TTTTTATTACTTCTCTGTACTCAGGAAAATAAATAT [XGTACX_site2092] | 6.94 |
| TGAATGTAAGAAAATACACACTAGTATAGTAACACC [CACACA_site5131] | 7.38 |
| TTGATTATAATTAGTACACACAAAATACATGCGGGG [CACACA_site2277] | 7.82 |
| AAATATATAATACATATGTAATATGCATATATATAT [GTGCAC_negctrl_site450] | 8.82 |
| AAGCATATTATAAACACACACTGTATAAAGATATAT [CACACA_site6277] | 6.86 |
| AAGTATAACCTTTATAATAATGACATGACCGATTTT [CACACA_negctrl_site395] | 6.83 |
| ATATAACGAATAATTACACACTATAAAAAAAGATCT [CACACA_site2862] | 6.9 |
| TATAACCGAATGTGTACACAAAATAATGTTATATAT [CACACA_site5627] | 7.21 |
| ATAATACGAATTTGTAGTACATTTATAATAACATGA [XGTACX_site2614] | 7.02 |
| TAAAAAACTTCGTGTTCACACATGTACTATATTATT [CACACA_site4796] | 7.12 |
| ACCCATAAGATAATTACACACAATACATCCCTATAT [CACACA_site5262] | 7.24 |
| TTTTTTTTTTTTTGTTGTACATTAAATATATTATTA [XGTACX_site7254] | 7.15 |
| TTTTAATAACCAATCCGTACATATAATCTTTATATT [XGTACX_site536] | 6.92 |
| TGGAAAAATAGGCACACACACATATATACATATATA [CACACA_site1297] | 6.97 |
| TAAAAGTTATAAGAGTGTACGTATATTTATATATCA [XGTACX_site2972] | 7.19 |
